Some of these densities may be calculated back from excess volumes.
Test: xn = mol fraction of the nth substance listed
Conditions: 100 kPa

O=S(=O)(O)O + CCCCCCCC[n+]1ccn(C)c1.O=S(=O)([O-])C(F)(F)F
x2 = 0
Conditions | mass density [kg/m3]
303.2 K | 1826
313.2 K | 1814

O=S(=O)(O)O + CCCCCC[n+]1ccn(C)c1.O=S(=O)([O-])C(F)(F)F
x2 = 0
Conditions | mass density [kg/m3]
293.2 K | 1834
298.2 K | 1830
303.2 K | 1826
308.2 K | 1821
313.2 K | 1814

O=S(=O)(O)O + CCCC[n+]1ccn(C)c1.O=S(=O)([O-])C(F)(F)F
mass density [kg/m3]
Conditions | 293.2 K | 298.2 K | 303.2 K | 308.2 K | 313.2 K
x2 = 0 | 1834 | 1830 | – | 1821 | –
x2 = 0.0036 | 1824 | – | 1817 | 1812 | 1806
x2 = 0.0104 | 1810 | 1805 | 1800 | – | –
x2 = 0.0176 | – | 1788 | – | – | 1777
x2 = 0.0364 | 1755 | – | – | 1741 | 1739
x2 = 0.0532 | 1717 | 1712 | – | 1704 | –
x2 = 0.1 | 1646 | 1641 | 1636 | – | –
x2 = 0.2 | 1538.4 | 1533.7 | – | – | 1519.8
x2 = 0.3 | 1469 | – | 1460.2 | – | 1451.3
x2 = 0.4 | 1422.9 | 1418.6 | 1414.4 | 1410.1 | –
x2 = 0.5 | 1389.4 | 1385.3 | – | 1377.1 | –
x2 = 0.6 | 1365 | 1361 | 1357 | 1352.9 | 1348.9
x2 = 0.7 | 1344.5 | 1340.5 | 1336.5 | 1332.4 | 1328.4
x2 = 0.8 | 1327.8 | 1323.8 | 1319.8 | 1315.8 | 1311.9
x2 = 0.9 | – | – | – | 1302.3 | –

CCCCCCCC[n+]1ccn(C)c1.O=S(=O)([O-])C(F)(F)F + O=S(=O)(O)O
mass density [kg/m3]
Conditions | 293.2 K | 298.2 K | 303.2 K | 308.2 K | 313.2 K
x1 = 0.0029 | 1825 | 1821 | 1816 | 1811 | 1805
x1 = 0.0086 | 1806 | 1802 | 1798 | 1793 | 1787
x1 = 0.0147 | 1787 | 1783 | 1779 | – | 1768
x1 = 0.0305 | 1741 | 1737 | 1732 | 1728 | 1722
x1 = 0.1001 | 1581 | 1577.2 | – | 1568.7 | 1564
x1 = 0.2 | 1439.9 | 1436.1 | 1432.1 | 1428.3 | 1424.1
x1 = 0.3001 | 1360.2 | – | 1352.8 | 1349.1 | 1345
x1 = 0.4001 | 1314 | – | 1306.9 | – | 1299.1
x1 = 0.4999 | 1284.2 | 1280.7 | 1277.3 | 1273.6 | 1269.4
x1 = 0.5999 | 1260.2 | 1256.8 | 1253.5 | – | –
x1 = 0.7 | 1237.2 | – | – | – | 1222.8
x1 = 0.8001 | 1214.8 | 1211.3 | 1208 | 1204.5 | 1200.6
x1 = 0.8974 | 1197.2 | 1193.7 | 1190.5 | 1186.9 | 1183.4
x1 = 1 | – | – | 1184.7 | – | 1177.6

CCCCCC[n+]1ccn(C)c1.O=S(=O)([O-])C(F)(F)F + O=S(=O)(O)O
mass density [kg/m3]
Conditions | 293.2 K | 298.2 K | 303.2 K | 308.2 K | 313.2 K
x1 = 0.0032 | 1825 | – | – | 1812 | 1806
x1 = 0.0095 | 1808 | 1804 | 1800 | 1795 | 1789
x1 = 0.0193 | 1783 | – | 1774 | 1769 | 1763
x1 = 0.0333 | 1748 | 1744 | 1740 | 1735 | 1730
x1 = 0.0999 | 1616 | 1612 | 1608 | 1604 | 1599
x1 = 0.2004 | – | 1482.8 | – | 1474.9 | 1470.7
x1 = 0.3 | – | 1406.6 | – | 1399 | 1395
x1 = 0.4001 | 1363.5 | 1359.8 | 1355.9 | 1352.2 | 1348.3
x1 = 0.5 | 1332.4 | 1328.7 | 1324.9 | 1321.2 | –
x1 = 0.5999 | 1308.1 | – | 1300.7 | 1297 | 1292.7
x1 = 0.7 | – | – | – | – | 1270.5
x1 = 0.8001 | 1265.1 | 1261.5 | 1257.8 | 1254.1 | 1249.5
x1 = 0.9001 | 1247.5 | – | 1240.4 | 1236.6 | –
x1 = 1 | – | – | 1231.6 | 1227.6 | 1222.7

CCCC[n+]1ccn(C)c1.O=S(=O)([O-])C(F)(F)F + O=S(=O)(O)O
x1 = 1
Conditions | mass density [kg/m3]
298.2 K | 1299.2
303.2 K | 1295.7
308.2 K | 1291.3
313.2 K | 1286.9
